Source: PubChem BioAssay AID360 (National Center for Advancing Translational Sciences (NCATS), 2006)
Hit rate of the full screen: of about 48,000 compounds, about 550 (1.1%) were called active. Inconclusive results (about 4%) are left out. Rule as the data show it: active = potency below about 15 µM; inconclusive = mostly about 16 µM to 33 µM; inactive = weaker than that. Some of the results follow.

What follows are molecules tested against Lysosomal acid glucosylceramidase (Homo sapiens) (UniProt P04062) (assay: Glucocerebrosidase). Conditions: purified enzyme, resorufin glucoside fluorescence (screen aimed at inhibitors), 20 min.
Method in brief: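 Normal human glucocerebrosidase (0.2 nM final) was assayed with resorufin β-D-glucopyranoside (30 uM final) in 50mM citric acid/KH2PO4, 10mM sodium taurocholate, 0.01% tween-20, pH 5.9. Compounds were titrated; fluorescence (Ex 548, Em 600) read after 20 min at RT.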
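Also: the screen sought inhibitors.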
Potency is read from the fitted curve at half-maximal effect.

Chain of UniProt P04062 (P04062 whole entry, looked up): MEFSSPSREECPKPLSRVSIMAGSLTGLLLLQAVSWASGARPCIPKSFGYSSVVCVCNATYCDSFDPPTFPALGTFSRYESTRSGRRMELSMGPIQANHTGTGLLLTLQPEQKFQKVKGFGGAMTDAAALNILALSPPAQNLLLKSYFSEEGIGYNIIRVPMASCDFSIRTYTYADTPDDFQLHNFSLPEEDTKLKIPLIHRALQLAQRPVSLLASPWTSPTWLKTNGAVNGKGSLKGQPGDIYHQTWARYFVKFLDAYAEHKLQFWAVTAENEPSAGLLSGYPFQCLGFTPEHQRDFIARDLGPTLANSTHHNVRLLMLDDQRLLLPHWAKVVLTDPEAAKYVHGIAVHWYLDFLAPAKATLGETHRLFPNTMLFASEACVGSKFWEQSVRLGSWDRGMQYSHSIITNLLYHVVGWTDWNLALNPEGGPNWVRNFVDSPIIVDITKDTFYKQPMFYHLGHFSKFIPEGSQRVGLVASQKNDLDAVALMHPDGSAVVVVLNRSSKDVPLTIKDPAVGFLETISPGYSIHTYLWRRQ

Potency, inactive:
N#CCCCSc1nnc(-c2ccccn2)o1 > 76.9 µM
CC(C)CCN1C(=O)c2ccc(C(=O)NCC3CCCO3)cc2C1=O (configuration not stated) > 76.9 µM
CCOC(=O)Nc1sc(=S)n(C)c1C > 76.9 µM
CC1(c2ccccc2)NC(=O)N(CC(=O)N2CCOCC2)C1=O (configuration not stated) > 76.9 µM
CCC(NC(=O)NCc1cccnc1)(C(F)(F)F)C(F)(F)F > 76.9 µM
CCn1c(COc2cccc(C)c2)nnc1SCC(=O)Nc1cccc(C(=O)O)c1 > 76.9 µM
O=C(CSc1nc2ccccc2o1)NCc1n[nH]c(=O)c2ccccc12 > 76.9 µM
COc1cc(C(c2nnnn2C2CCCC2)N2CCN(C)CC2)cc(OC)c1OC (configuration not stated) > 76.9 µM
CC(=O)C1=C(C)OC(N)=C(C#N)C1c1ccncc1 (configuration not stated) > 76.9 µM
COCCCn1c(SCC(=O)N2CC(=O)Nc3ccccc32)nnc1-c1ccoc1C > 76.9 µM
CCN(CC)Cc1csc(C(N)=O)c1 > 76.9 µM
CCC1CCCCN1C(=O)CSc1nnc(-c2ccco2)o1 (configuration not stated) > 76.9 µM
COCC(=O)NC1CCN(C(=O)Nc2ccc(Br)cc2)CC1 > 76.9 µM
Nc1cc(C(=O)O)ccc1Nc1ccc(F)c(F)c1 > 76.9 µM
CC1NC(=O)N(C)C2NC(=O)N(C)C(c3ccccc3)C12 (configuration not stated) > 76.9 µM
O=S(=O)(c1ccccc1)N(Cc1nc(-c2ccccc2)no1)C1CCCCC1 > 76.9 µM
CCCS(=O)(=O)N1CCN(Cc2ccccc2OCC)CC1 > 76.9 µM
O=c1c2[nH]c3ccc(F)cc3c2ncn1CCCn1ccnc1 > 76.9 µM
Cn1c(=O)c2c(nc(N3CCOCC3)n2CC(=O)C23CC4CC(CC(C4)C2)C3)n(C)c1=O > 76.9 µM
Cn1c(=O)c2c(nc(N3CCN(Cc4ccccc4)CC3)n2CCCc2ccccc2)n(C)c1=O > 76.9 µM
O=C(NCCN1CCc2ccccc2C1)C1CC(=O)N(C2CCCC2)C1 (configuration not stated) > 76.9 µM
OCc1nc2ccccc2n1CCCOc1ccc(Br)cc1
c1ccc2c(CNn3cnnc3)cccc2c1 > 76.9 µM
O=S(=O)(Nc1cnc2ccccc2c1)N1CCCCCC1 > 76.9 µM
Nc1ccccc1OCCOCCOc1ccccc1N > 76.9 µM
N#Cc1ccc(OCc2nnc(SCC(=O)N3CCCc4ccccc43)n2-c2ccccc2)cc1
CC1CCN(CCNC(=O)c2ccc(NC(=O)C3CCCO3)cc2)CC1 (configuration not stated) > 76.9 µM
